Hit rate of the full screen: of about 310,000 compounds, about 14,000 (4.5%) showed an effect of 50% or more. The effect is printed as a negative number. Some of the results follow.
biological target: human ether-à-go-go-related gene (hERG) potassium channel (human, UniProt Q12809); experiment: primary screen, population patch clamp on CHO cells stably expressing hERG
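Also: peak tail current of the secondary pulse compared with the same well before compound.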

Sequence of human ether-à-go-go-related gene (hERG) potassium channel (Q12809 whole entry, looked up): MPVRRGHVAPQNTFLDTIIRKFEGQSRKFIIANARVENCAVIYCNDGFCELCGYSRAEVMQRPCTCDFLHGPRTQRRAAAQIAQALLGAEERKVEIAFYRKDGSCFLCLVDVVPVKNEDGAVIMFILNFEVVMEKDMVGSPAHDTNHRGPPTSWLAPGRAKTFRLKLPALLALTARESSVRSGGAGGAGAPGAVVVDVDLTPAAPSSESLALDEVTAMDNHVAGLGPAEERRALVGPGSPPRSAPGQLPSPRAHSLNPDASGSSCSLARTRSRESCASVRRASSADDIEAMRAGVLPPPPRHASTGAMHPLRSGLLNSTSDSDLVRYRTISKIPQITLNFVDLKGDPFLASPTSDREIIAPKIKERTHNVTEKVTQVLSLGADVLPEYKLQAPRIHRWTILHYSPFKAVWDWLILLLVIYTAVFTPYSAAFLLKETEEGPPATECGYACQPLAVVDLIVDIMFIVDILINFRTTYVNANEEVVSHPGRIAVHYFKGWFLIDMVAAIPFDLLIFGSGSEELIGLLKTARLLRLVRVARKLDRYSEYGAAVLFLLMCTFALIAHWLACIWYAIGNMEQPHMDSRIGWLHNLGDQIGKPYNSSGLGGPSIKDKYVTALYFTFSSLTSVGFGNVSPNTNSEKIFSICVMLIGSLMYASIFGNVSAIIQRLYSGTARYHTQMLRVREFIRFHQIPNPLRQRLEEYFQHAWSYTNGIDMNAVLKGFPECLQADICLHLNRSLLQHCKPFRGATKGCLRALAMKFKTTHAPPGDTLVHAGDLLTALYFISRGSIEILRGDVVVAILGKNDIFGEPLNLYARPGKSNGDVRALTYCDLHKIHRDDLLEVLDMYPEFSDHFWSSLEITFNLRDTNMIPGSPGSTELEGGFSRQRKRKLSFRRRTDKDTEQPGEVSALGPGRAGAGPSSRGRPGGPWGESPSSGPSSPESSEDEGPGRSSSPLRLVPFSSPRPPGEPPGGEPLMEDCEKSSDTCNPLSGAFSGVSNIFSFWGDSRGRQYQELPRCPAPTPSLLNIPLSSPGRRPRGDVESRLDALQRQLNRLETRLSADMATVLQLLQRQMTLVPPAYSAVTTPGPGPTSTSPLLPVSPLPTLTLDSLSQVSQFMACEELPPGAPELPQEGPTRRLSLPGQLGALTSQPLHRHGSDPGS

Structure (SMILES)	hERG current change (%, negative = inhibition) at 10uM
COc1ccc(C(=O)NCC(=O)OCC(=O)Nc2cc([N+](=O)[O-])ccc2F)cc1	-23.4%
Cc1ccc(C(=O)CSc2nnc(C)s2)cc1	-7.21%
COc1ccc(N=Cc2ccc[nH]2)cc1	16%
O=C(O)CCc1nc2ccccc2c(=O)[nH]1	38.7%
CCCNC(=O)C(Cc1ccc(I)cc1)NC(=O)C1CC1 (stereo not shown)	0.47%
CC1CC(c2ccccc2)NS(=O)(=O)O1 (stereo not shown)	1.46%
COCC(C)NC(=O)c1cccc([N+](=O)[O-])c1 (stereo not shown)	15%
Cc1ccc(N2CC(C(=O)OCC(=O)C(C)(C)C)CC2=O)cc1 (stereo not shown)	-4.69%
[O-][n+]1onc2c1CCC1N(O)CCC21O (stereo not shown)	3.18%
CCO[C@@H]1OC(C(=O)N2CCCCCCC2)=C[C@H](c2cn(C(C)=O)c3ccccc23)[C@H]1CCCO	-41.1%
COc1ccc(N/C(=N/c2nc(C)cc(C)n2)NC(=O)c2ccccc2)cc1	14.5%
CCOc1ccc(C(=O)NC(C(=O)NCc2ccccn2)C(C)C)cc1 (stereo not shown)	16.8%
S=c1[nH]nc(COc2ccccc2)n1Cc1ccccc1	16%
CC(Cl)C(=O)Nc1ncc(C(F)(F)F)cc1Cl (stereo not shown)	-6.46%
O=C1CC(c2ccco2)=Nc2ccccc2N1	3.5%
Cc1cc(C)n(/N=C\c2c(O)ccc3ccccc23)c(=O)c1C(N)=O	-1.55%
CS(=O)(=O)c1ccc2nnn(OCC(=O)Nc3cccc(C#N)c3)c2c1	-5.29%
CN(Cc1ccccc1F)C(=O)c1ccc(Oc2ccccc2)cc1	-23.3%
O=C(c1ccc(CS(=O)c2cccc(Cl)c2)o1)N1CCN(C2CCCCC2)CC1 (stereo not shown)	-29.3%
O=C(O)c1ccccc1CSc1nc2ccccc2o1	18.5%
COc1ccc(C(=O)Nc2cccc(C(=O)NCc3ccco3)c2)cc1	-21%
O=C(NCCNc1ccc([N+](=O)[O-])cc1)c1ccco1	-23.7%

Structure (SMILES)	hERG current change (%, negative = inhibition) at 10uM
O=c1c2ccccc2[nH]c(=S)n1-c1cccc(S(=O)(=O)N2CCCC2)c1	20.5%
CC(=O)c1ccc(NC(=S)Nc2ccc3cn[nH]c3c2)cc1	8.92%
COc1cc(CC(=O)Nc2nccs2)cc(OC)c1OC	-9.76%
Cc1ccc(S(=O)(=O)N2CCN(Cc3cc(C(C)C)ccc3O)CC2)cc1	6.56%
Cl.O=C(CCN1CCCCCC1)Nc1ccc(F)cc1	-42.8%
Cl.O=C(CSc1nc(O)cc(=O)n1-c1ccccc1)Nc1ccccn1	27.8%
Cl.OC(CN1CCOCC1)CN(c1ccccc1)c1ccccc1 (stereo not shown)	-28.5%
CCN(C(=O)COC(=O)Cc1c(F)cccc1Cl)c1c(N)n(Cc2ccccc2)c(=O)[nH]c1=O	11.3%
CCn1c(SCC(=O)Nc2ccccc2)nnc1-c1cccs1	-70.8%
COc1ccc(NC(=O)CC2Oc3ccccc3NC2=O)cc1 (stereo not shown)	9.76%
CCOP(=O)(O)c1ccccc1OCCOc1ccccc1P(=O)(O)OCC	9.14%
CC(C)Cn1c(=O)c(C(=O)Nc2ccncc2)c(O)c2ccccc21	-6.19%
COc1ccc(NS(=O)(=O)c2cc(NC(=O)c3ccc(F)cc3)ccc2OC)cc1	6.37%
C/C(=N\NC(=O)CSc1nc2ccccc2s1)c1cccnc1	-7.25%
COc1ccc(Cc2nnc(SCC(=O)Nc3ncc(C)s3)o2)cc1	-8.49%
COC(=O)c1ccc(CSc2nccn2C)cc1	-5.16%
CCOc1ccc2c(=O)c(-c3ccc4c(c3)OCCCO4)c(C)oc2c1	1.73%
CCOc1cc(/C=N/n2cnnc2)ccc1O	7.61%
CCOC(=O)c1cc(-c2ccccc2)n(CCC(=O)N2CCN(c3ccccn3)CC2)c1C	-40.5%
Cc1ccc2[nH]c(=O)c(C(c3nnnn3C3CCCC3)N(Cc3cccnc3)Cc3ccco3)cc2c1 (stereo not shown)	-5.71%
O=C(Cc1ccccc1)Nc1ccccc1N1CCOCC1	-6.81%
O=C(Cn1cc(S(=O)(=O)Cc2ccccc2F)c2ccccc21)N1CCOCC1	-4.32%

Structure (SMILES)	hERG current change (%, negative = inhibition) at 10uM
Cc1c(CN2CCC(n3nccc3NC(=O)C3CC3)CC2)[nH]c2ccccc12	-61%
CCOC(=O)c1cnc(-n2nc(C)cc2C)nc1NC(C)c1ccccc1 (stereo not shown)	3.15%
COc1ccc(C(C)=O)cc1CSc1nc2ccccc2c(=O)n1-c1ccccc1C	12.2%
Cc1c(C(c2ccc(O)cc2)c2c(O)c3ccccc3oc2=O)c(=O)n(-c2ccccc2)n1C (stereo not shown)	7.46%
O=C1c2cccc(OCC(=O)N3CCCc4ccccc43)c2CCN1Cc1ccc(F)cc1	-34%
N#CCCn1cc(C(=O)O)c(-c2ccc3ccccc3c2)n1	16%
CC(=O)c1c(C)[nH]c(C(=O)CSc2nc3ccccc3c(=O)n2CCCN2CCOCC2)c1C	-15.5%
COC(=O)[C@H](CC(C)C)NC(=O)Nc1ccccc1F	16.6%
CSc1nc(N)c(C#N)c(-c2ccccc2Cl)c1C#N	11.9%
CC(=O)Nc1nnc(SCC(=O)c2ccc(F)cc2)s1	-3.12%
O=C(NCC(=O)N1CCN(S(=O)(=O)c2ccccc2F)CC1)c1ccc(Br)o1	-15.5%
Cc1c(C(=O)N2CCN(C)CC2)oc2ccc(Br)cc12	-20%
COC(=O)c1sccc1NC(=O)c1ccc(C#N)cc1	7.91%
COc1cc(/C=N/NC(=O)c2cc(-c3c(C)nn(-c4ccccc4)c3C)n[nH]2)ccc1O	1.36%
O=C(CCS(=O)NCc1ccccc1)NCc1ccccc1 (stereo not shown)	17.1%
CCc1ccc(NC(=O)C(=S)NC2CCCCC2)cc1	26.8%
COc1ccccc1CNC(=O)[C@H](Cc1c[nH]c2ccccc12)NC(=O)[C@@H]1Cc2ccccc2CN1	-16.5%
CCCC(C)C(=O)Nc1ncc(S(=O)(=O)c2ccc([N+](=O)[O-])cc2)s1 (stereo not shown)	-0.952%
CC(C)=CCN1CCN(Cc2nc(-c3ccc(F)cc3)cs2)CC1CCO (stereo not shown)	-69%
Cn1c(N2CCC(C(N)=O)CC2)nc2c1c(=O)n(Cc1cccc(Br)c1)c(=O)n2C	-64.7%
O=C(NCc1cccnc1)c1cccc(F)c1	17.9%
O=C(Cn1ccc2ccccc2c1=O)NCCC(=O)N1CCCCC1	2.91%

Structure (SMILES)	hERG current change (%, negative = inhibition) at 10uM
CCCCC(=Nc1ccc(N)cc1)C1=C(O)C(C(=O)OC)C(C)(C)CC1=O (stereo not shown)	-1.62%
Cc1ccc(CNC(=O)CCS(=O)(=O)c2cc3c(cc2C)NC(=O)CO3)cc1	-38.5%
Cc1ccc(-c2ccc(/C=N/NC(=O)c3ccccc3O)o2)cc1	17.6%
Cc1ccnc(NC(=O)Cn2cc([N+](=O)[O-])cn2)c1	0.372%
Cc1ccc(C(=O)Nc2cccc(C(F)(F)F)c2)cc1NC(=O)c1csc(-c2ccncc2)n1	-62.5%
Cc1ccc(O)c(CNc2nccs2)c1	6.55%
COCCN1Cc2cccc(C(=O)Nc3ccc(S(=O)(=O)N4CCCCCC4)cc3)c2C1=O	19.8%
Cn1cccc1CC(=O)NNC(=O)Nc1cccc(Cl)c1	18.9%
CN1Cc2sc(NC(=S)NC(=O)c3ccccc3)c(C#N)c2CC1(C)C	-49.7%
COC(=O)C1=C(c2ccc(F)cc2OCc2ccccc2)C[C@@H]2CC[C@H]1N2C(=O)NCc1ccc(OC)cc1	7.82%
CCOc1ccc(-c2c(C(=O)N/N=C(\C)c3cccnc3)nnn2-c2nonc2N)cc1	21.7%
Cc1cccc(N2CCN(C(=O)c3ccc(Cl)c(NC4=NC5CS(=O)(=O)CC5S4)c3)CC2C)c1 (stereo not shown)	10.4%
CCOC(=O)c1ccc(COc2nc3ccccc3nc2-c2ccccc2NC(C)=O)o1	12.8%
O=C(CCN1C(=O)C2C3C=CC(C3)C2C1=O)Nc1ccc2ncccc2c1 (stereo not shown)	18.3%
Cc1ccc(-c2nnn(CC(=O)Nc3nnc(C(C)C)s3)n2)cc1	19.7%
Cc1ccc(C)c(OCC(=O)Nc2nonc2NC(=O)COc2cc(C)ccc2C)c1	-25.1%
Cc1noc(C)c1COc1ccc(C(=O)OC(C)C(=O)Nc2ccc(N3CCOCC3)cc2)cc1 (stereo not shown)	4.54%
COc1cc(NC(=O)CCNS(=O)(=O)c2cc(Br)cnc2N)cc(OC)c1	15.1%
Cc1ccc(C(=O)Cc2cc3ccccc3oc2=O)c(C)c1	16.3%
O=C(COC(=O)CCC(=O)c1cccs1)NC(=O)c1ccc(OC(F)F)cc1	-4.17%
Cc1c(/C=N/NC(=O)c2cccnc2)cc(C#N)n1C	23.2%
O=C(COC(=O)c1cnccn1)Nc1ccc(Cl)cc1C(F)(F)F	0.684%

— article PMC4336329 (PLoS ONE, 2015)
